# The list shows a part of the results.
# B1: AFL5 (Aspergillus fumigatus), Q4WB00 (protein)
# chain: MDNFMEMTKKLGHQPELLRLRALDATYDDALEGKLVVAPLDMSEPGKKILDSGTADGTWLRNVRSKQSVPHDYYGSDVEGELFPKDPDGITYFAHSFKDPWPQQYLGFFDLVHIRGSLAGSAPEGPAPVIQNLTTLLKPGGWVQLMEMNAFSPPPNGPAMTDFAKMASEMFTGIGVGDFANNNKSMLEDAGLKNVQEKRVIVNLGKKAKPELHDQSIHGVTGPIVPLTSVARTVKSSFTGEQLDALPARVKEELETEGGQVEMIIAFGQKA
# Tests used:
# Experiment in all cases: glycan array binding signal (z-score within array); higher = stronger binding
# Details in all cases: glycan notation: IUPAC condensed, linker removed
# [1] = biological target: Gal(b1-3)[Fuc(a1-4)]GlcNAc(b1-3)Gal(b1-4)[Fuc(a1-3)]GlcNAc
# In short: (§1)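 Columns mapping to the same glycan were averaged after glycan names were converted to IUPAC-condensed notation. The data come from 3228 arrays in the Consortium for Functional Glycomics database, limited to those with an available protein sequence. Binding is reported as a within-array Z-score averaged across arrays of one protein sequence and across linkers.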
# [2] = biological target: Gal(b1-3)[Fuc(a1-4)]GlcNAc(b1-6)GalNAc
# In short: as §1
# [3] = biological target: Gal(b1-3)[GlcNAc(b1-6)]GalNAc
# In short: as §1
# [4] = biological target: Gal(b1-3)[Neu5Ac(a2-6)]GalNAc
# In short: as §1
# [5] = biological target: Gal(b1-3)[Neu5Ac(a2-6)]GlcNAc(b1-4)Gal(b1-4)Glc
# In short: as §1
# [6] = biological target: Gal(b1-3)[Neu5Ac(b2-6)]GalNAc
# In short: as §1
# [7] = biological target: Gal(b1-4)Gal
# In short: as §1
# [8] = biological target: Gal(b1-4)GalNAc(a1-3)[Fuc(a1-2)]Gal(b1-4)GlcNAc
# In short: as §1
# [9] = biological target: Gal(b1-4)GalNAc(b1-3)[Fuc(a1-2)]Gal(b1-4)GlcNAc
# In short: as §1
# [10] = biological target: Gal(b1-4)Glc
# In short: as §1
# [11] = biological target: Gal(b1-4)Glc6S
# In short: as §1
# [12] = biological target: Gal(b1-4)GlcNAc
# In short: as §1
# [13] = biological target: Gal(b1-4)GlcNAc(a1-6)Gal(b1-4)GlcNAc
# In short: as §1
# [14] = biological target: Gal(b1-4)GlcNAc(b1-2)Man
# In short: as §1
# [15] = biological target: Gal(b1-4)GlcNAc(b1-2)Man(a1-3)Man(b1-4)GlcNAc(b1-4)GlcNAc
# In short: as §1
# [16] = biological target: Gal(b1-4)GlcNAc(b1-2)Man(a1-3)[Gal(b1-4)GlcNAc(b1-2)Man(a1-6)]Man(b1-4)GlcNAc(b1-4)GlcNAc
# In short: as §1
# [17] = biological target: Gal(b1-4)GlcNAc(b1-2)Man(a1-3)[Gal(b1-4)GlcNAc(b1-2)Man(a1-6)]Man(b1-4)GlcNAc(b1-4)[Fuc(a1-6)]GlcNAc
# In short: as §1
# [18] = biological target: Gal(b1-4)GlcNAc(b1-2)Man(a1-3)[Gal(b1-4)GlcNAc(b1-2)Man(a1-6)][Gal(b1-4)GlcNAc(b1-4)]Man(b1-4)GlcNAc(b1-4)[Fuc(a1-6)]GlcNAc
# In short: as §1
# [19] = biological target: Gal(b1-4)GlcNAc(b1-2)Man(a1-3)[Gal(b1-4)GlcNAc(b1-2)Man(a1-6)][GlcNAc(b1-4)]Man(b1-4)GlcNAc(b1-4)[Fuc(a1-6)]GlcNAc
# In short: as §1
# [20] = biological target: Gal(b1-4)GlcNAc(b1-2)Man(a1-3)[GlcNAc(b1-2)Man(a1-6)]Man(b1-4)GlcNAc(b1-4)GlcNAc
# In short: as §1
# [21] = biological target: Gal(b1-4)GlcNAc(b1-2)Man(a1-3)[GlcNAc(b1-4)][Gal(b1-4)GlcNAc(b1-2)Man(a1-6)]Man(b1-4)GlcNAc(b1-4)GlcNAc
# In short: as §1
# [22] = biological target: Gal(b1-4)GlcNAc(b1-2)Man(a1-3)[Man(a1-6)]Man(b1-4)GlcNAc(b1-4)GlcNAc
# In short: as §1
# [23] = biological target: Gal(b1-4)GlcNAc(b1-2)Man(a1-6)Man(b1-4)GlcNAc(b1-4)GlcNAc
# In short: as §1
# [24] = biological target: Gal(b1-4)GlcNAc(b1-2)Man(a1-6)[GlcNAc(b1-2)Man(a1-3)]Man(b1-4)GlcNAc(b1-4)GlcNAc
# In short: as §1
# [25] = biological target: Gal(b1-4)GlcNAc(b1-2)Man(a1-6)[Man(a1-3)]Man(b1-4)GlcNAc(b1-4)GlcNAc
# In short: as §1
# [26] = biological target: Gal(b1-4)GlcNAc(b1-2)[Gal(b1-4)GlcNAc(b1-4)]Man(a1-3)[Gal(b1-4)GlcNAc(b1-2)Man(a1-6)]Man(b1-4)GlcNAc(b1-4)GlcNAc
# In short: as §1
# [27] = biological target: Gal(b1-4)GlcNAc(b1-2)[Gal(b1-4)GlcNAc(b1-4)]Man(a1-3)[Gal(b1-4)GlcNAc(b1-2)[Gal(b1-4)GlcNAc(b1-6)]Man(a1-6)]Man(b1-4)GlcNAc(b1-4)GlcNAc
# In short: as §1
# [28] = biological target: Gal(b1-4)GlcNAc(b1-2)[Gal(b1-4)GlcNAc(b1-4)]Man(a1-3)[GlcNAc(b1-4)][Gal(b1-4)GlcNAc(b1-2)Man(a1-6)]Man(b1-4)GlcNAc(b1-4)GlcNAc
# In short: as §1
# [29] = biological target: Gal(b1-4)GlcNAc(b1-2)[Gal(b1-4)GlcNAc(b1-4)]Man(a1-3)[GlcNAc(b1-4)][Gal(b1-4)GlcNAc(b1-2)[Gal(b1-4)GlcNAc(b1-6)]Man(a1-6)]Man(b1-4)GlcNAc(b1-4)GlcNAc
# In short: as §1
# [30] = biological target: Gal(b1-4)GlcNAc(b1-2)[Gal(b1-4)GlcNAc(b1-6)]Man(a1-6)[Gal(b1-4)GlcNAc(b1-2)Man(a1-3)]Man(b1-4)GlcNAc(b1-4)GlcNAc
# In short: as §1
# [31] = biological target: Gal(b1-4)GlcNAc(b1-2)[Gal(b1-4)GlcNAc(b1-6)]Man(a1-6)[Gal(b1-4)GlcNAc(b1-2)Man(a1-3)]Man(b1-4)GlcNAc(b1-4)[Fuc(a1-6)]GlcNAc
# In short: as §1
# [32] = biological target: Gal(b1-4)GlcNAc(b1-2)[Gal(b1-4)GlcNAc(b1-6)]Man(a1-6)[GlcNAc(b1-4)][Gal(b1-4)GlcNAc(b1-2)Man(a1-3)]Man(b1-4)GlcNAc(b1-4)GlcNAc
# In short: as §1
# [33] = biological target: Gal(b1-4)GlcNAc(b1-2)[Gal(b1-4)GlcNAc(b1-6)]Man(a1-6)[GlcNAc(b1-4)][Gal(b1-4)GlcNAc(b1-2)[Gal(b1-4)GlcNAc(b1-4)]Man(a1-3)]Man(b1-4)GlcNAc(b1-4)[Fuc(a1-6)]GlcNAc
# In short: as §1
# [34] = biological target: Gal(b1-4)GlcNAc(b1-3)Gal(b1-3)GalNAc
# In short: as §1
# [35] = biological target: Gal(b1-4)GlcNAc(b1-3)Gal(b1-3)GlcNAc
# In short: as §1
# [36] = biological target: Gal(b1-4)GlcNAc(b1-3)Gal(b1-4)Glc
# In short: as §1
# [37] = biological target: Gal(b1-4)GlcNAc(b1-3)Gal(b1-4)GlcNAc
# In short: as §1
# [38] = biological target: Gal(b1-4)GlcNAc(b1-3)Gal(b1-4)GlcNAc(b1-2)Man(a1-3)[Gal(b1-4)GlcNAc(b1-3)Gal(b1-4)GlcNAc(b1-2)Man(a1-6)]Man(b1-4)GlcNAc(b1-4)GlcNAc
# In short: as §1
binder,measurement,setting,value
B1,glycan array binding signal (z-score),[1],-0.394
same,glycan array binding signal (z-score),[2],0.029
same,glycan array binding signal (z-score),[3],0.164
same,glycan array binding signal (z-score),[4],-0.564
same,glycan array binding signal (z-score),[5],-0.419
same,glycan array binding signal (z-score),[6],-0.429
same,glycan array binding signal (z-score),[7],-0.502
same,glycan array binding signal (z-score),[8],0.181
same,glycan array binding signal (z-score),[9],-0.527
same,glycan array binding signal (z-score),[10],-0.235
same,glycan array binding signal (z-score),[11],-0.068
same,glycan array binding signal (z-score),[12],-0.261
same,glycan array binding signal (z-score),[13],-0.49
same,glycan array binding signal (z-score),[14],0.065
same,glycan array binding signal (z-score),[15],-0.271
same,glycan array binding signal (z-score),[16],-0.034
same,glycan array binding signal (z-score),[17],0.004
same,glycan array binding signal (z-score),[18],-0.097
same,glycan array binding signal (z-score),[19],-0.411
same,glycan array binding signal (z-score),[20],-0.964
same,glycan array binding signal (z-score),[21],-0.705
same,glycan array binding signal (z-score),[22],0.106
same,glycan array binding signal (z-score),[23],-0.114
same,glycan array binding signal (z-score),[24],0
same,glycan array binding signal (z-score),[25],0.402
same,glycan array binding signal (z-score),[26],-0.297
same,glycan array binding signal (z-score),[27],-0.466
same,glycan array binding signal (z-score),[28],-0.134
same,glycan array binding signal (z-score),[29],-0.419
same,glycan array binding signal (z-score),[30],0.487
same,glycan array binding signal (z-score),[31],-0.149
same,glycan array binding signal (z-score),[32],-0.405
same,glycan array binding signal (z-score),[33],3.2
same,glycan array binding signal (z-score),[34],-0.006
same,glycan array binding signal (z-score),[35],-0.579
same,glycan array binding signal (z-score),[36],-0.248
same,glycan array binding signal (z-score),[37],-0.236
same,glycan array binding signal (z-score),[38],1.15
